Measured values: the supplement of paper PMC4604168 (melanoma cell lines)
This is one part of the list. Most values come without repeats; read them as rough.

test system: MeWo; assay: cell count relative to DMSO control; melanoma cells; higher = more viable cells; conditions: library dose: standard library concentration; 72 h
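Also: cells treated in 1,536-well plates, then fixed and DAPI-stained, with nuclei counted from automated high-throughput microscope images.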

Compound	cell count
O=C(Nc1cc(C(F)(F)F)cc(C(F)(F)F)c1)c1cc(Cl)ccc1O + Cn1cc(/C=C2\C(=O)Nc3cccnc32)c2ccccc21 [GW441756] (first compound 0.08 µM, partner dose 2 µM)	94%
O=C(O)c1ccc2c(c1)nc(Nc1cccc(Cl)c1)c1ccncc12 + CCc1ccc(CCOc2ccc(CC3SC(=O)NC3=O)cc2)nc1 [pioglitazone] (first compound 2 µM, partner dose 10 µM)	79%
Cc1cc(N2CCOCC2)cc2[nH]c(-c3c(NC[C@@H](O)c4cccc(Cl)c4)cc[nH]c3=O)nc12 + CC(C)CCN1c2nc(Nc3cc(F)c(O)c(F)c3)ncc2N(C)C(=O)C1C [BID1870] (first compound 1 µM, partner dose 1 µM)	70.9%
O=C(Nc1ccccc1)c1cc([N+](=O)[O-])ccc1Cl + COc1ccc(-c2ccc3c(N4CCOCC4)nc(N4C[C@@H](C)O[C@@H](C)C4)nc3n2)cc1CO [KU0063794] (first compound 10 µM, partner dose 0.1 µM)	73.4%
O=C(O)c1ccc2c(c1)nc(Nc1cccc(Cl)c1)c1ccncc12 + O=c1cc(-c2cccc3c2Sc2ccccc2S3)oc(N2CCOCC2)c1 [KU55933] (first compound 2 µM, partner dose 5 µM)	76.3%
O=C(O)c1ccc2c(c1)nc(Nc1cccc(Cl)c1)c1ccncc12 + c1cc(-c2cnn3cc(-c4ccc(OCCN5CCCCC5)cc4)cnc23)ccn1 [Dorsomorphin] (first compound 2 µM, partner dose 2 µM)	66.4%
Cn1nnc2c(C(N)=O)ncn2c1=O [temozolomide] + Cc1cc([N+](=O)[O-])ccc1NS(=O)(=O)c1cc(Cl)ccc1Cl [FH535] (first compound 10 µM, partner dose 5 µM)	89.6%
O=C(Nc1cc(C(F)(F)F)cc(C(F)(F)F)c1)c1cc(Cl)ccc1O + COc1ccc2c(c1)CCC1C2CCC2(C)C(NCCCCCCN3C(=O)C=CC3=O)CCC12 [U73122] (first compound 0.08 µM, partner dose 2 µM)	75.5%
Cc1cc(N2CCOCC2)cc2[nH]c(-c3c(NC[C@@H](O)c4cccc(Cl)c4)cc[nH]c3=O)nc12 + Oc1nc(-c2ccc(C(F)(F)F)cc2)nc2c1CSCC2 [XAV939] (first compound 1 µM, partner dose 10 µM)	74%
O=C(Nc1cc(C(F)(F)F)cc(C(F)(F)F)c1)c1cc(Cl)ccc1O + CC(=O)O[C@@]12CO[C@@H]1C[C@H](O)[C@@]1(C)C(=O)[C@H](O)C3=C(C)[C@@H](OC(=O)[C@H](O)[C@@H](NC(=O)OC(C)(C)C)c4ccccc4)C[C@@](O)([C@@H](OC(=O)c4ccccc4)[C@H]21)C3(C)C [Docetaxel] (first compound 0.08 µM, partner dose 0.0005 µM)	33.6%
O=C(Nc1ccccc1)c1cc([N+](=O)[O-])ccc1Cl + O=S(=O)(c1ccccc1)N(CC(F)(F)F)c1ccc(C(O)(C(F)(F)F)C(F)(F)F)cc1 [T0901317] (first compound 10 µM, partner dose 7 µM)	70.9%
O=C(Nc1cc(C(F)(F)F)cc(C(F)(F)F)c1)c1cc(Cl)ccc1O + CCc1ccc(CCOc2ccc(CC3SC(=O)NC3=O)cc2)nc1 [pioglitazone] (first compound 0.08 µM, partner dose 10 µM)	97.9%
Cn1nnc2c(C(N)=O)ncn2c1=O [temozolomide] + Oc1nc(-c2ccc(C(F)(F)F)cc2)nc2c1CSCC2 [XAV939] (first compound 10 µM, partner dose 10 µM)	93.8%
O=C(Nc1cc(C(F)(F)F)cc(C(F)(F)F)c1)c1cc(Cl)ccc1O + C[C@]1(c2nc3c(C(N)=O)cccc3[nH]2)CCCN1 [Veliparib] (first compound 0.08 µM, partner dose 7 µM)	94.1%
O=C(O)c1ccc2c(c1)nc(Nc1cccc(Cl)c1)c1ccncc12 + O=C(Nc1ccccc1)c1cc([N+](=O)[O-])ccc1Cl [GW9662] (first compound 2 µM, partner dose 10 µM)	58.5%
O=C(O)c1ccc2c(c1)nc(Nc1cccc(Cl)c1)c1ccncc12 + Cn1cc(/C=C2\C(=O)Nc3cccnc32)c2ccccc21 [GW441756] (first compound 2 µM, partner dose 2 µM)	93.6%
O=C(O)[C@@H]1[O][Sb](=[O])([O][Sb]2(=[O])[O][C@H]([C@H](O)CO)[C@H](O)[C@H](C(=O)O)[O]2)[O][C@H]([C@H](O)CO)[C@@H]1O (some centres not stated) [stibogluconate] + COc1ccc2c(c1)CCC1C2CCC2(C)C(NCCCCCCN3C(=O)C=CC3=O)CCC12 [U73122] (first compound 10 µM, partner dose 2 µM)	70.6%
